PubChem BioAssay AID463173 (ICCB-Longwood Screening Facility, Harvard Medical School, 2010)
Out of some 52,000 compounds screened, about 1,700 (3.3%) were called active. Cut-off read from the data, not from the text of the source: active = survival mostly below about 52% (no sharp cut-off); inactive = mostly above about 56%. The list shows a part of the results.

The molecules below were run on Wild type (assay: growth inhibition of S. aureus wild type versus tarO mutant, primary screen, teichoic acid synthesis inhibitors, RN4220, OD600 (AID 463173)). Conditions: S. aureus RN4220 wild type/DeltatarO growth, OD600, 18 h, stronger effect = lower value, screened at 18.75 µg/mL (by protocol).

Row | SMILES | survival
1 | CCCCN(C)CCCNC(=O)CN1C(=O)COc2ccc(S(=O)(=O)N3CCC(C)CC3)cc21 | inactive: 77%
2 | CCOC(=O)N1CCc2c(sc(NCc3sccc3C)c2C(=O)Nc2cc(OC)ccc2OC)C1 | inactive: 65%
3 | COc1ccc(-c2cc(C(F)(F)F)nc(SCC(=O)NN3CCN(C)CC3)n2)cc1 | inactive: 101%
4 | CCOc1ccccc1-n1c(C)nc2cc(C(=O)O)ccc21 | inactive: 81%
5 | CCCCNC(=O)C1CCN(C(=O)N2CC(C)Oc3ccc(Cl)cc32)CC1 (stereo not given) | inactive: 83%
6 | COc1ccc(NC(=O)c2c(C(=O)Nc3ccccc3)sc3nc(C)cc(=O)n23)cc1 | inactive: 93%
7 | CCOc1ccccc1NC(=O)Cc1coc2c(C)c(C)ccc12 | inactive: 114%
8 | CCOc1ccccc1NC(=O)CN1C(=O)COc2ccc(S(=O)(=O)N3CCCCCC3)cc21 | inactive: 94%
9 | Cc1cccc(C(=O)N2CCc3cc(CNC(=O)c4ccnn4C)ccc32)c1 | inactive: 90%
10 | Cc1ccc(CCNC(=O)C(CC(C)C)NS(=O)(=O)c2ccc3c(c2)oc(=O)n3C)cc1 (stereo not given) | inactive: 79%
11 | N#C/C(=C\c1ccc(F)cc1)C(=O)NCC1CCCO1 (stereo not given) | inactive: 76%
12 | Cn1cnc(S(=O)(=O)N2CCCC(C(=O)NCc3ccccc3Cl)C2)c1 (stereo not given) | inactive: 124%
13 | COc1cccc(NC(=O)CSc2nc3ccc(NC(=O)c4ccco4)cc3s2)c1 | inactive: 90%
14 | CCc1nn(CC(=O)NCCCOC)c(=O)c2cc3occc3n12 | inactive: 122%
15 | O=C(CCCn1c(=O)[nH]c2ccccc2c1=O)NCc1ccccc1Cl | inactive: 124%
16 | Cc1ccc(-c2nnc(Nc3ccc(Br)cc3)c3ccccc23)cc1S(=O)(=O)N1CCCCC1 | inactive: 89%
17 | CCCN(CCC)CCCNC(=O)Cn1cnc2onc(-c3ccc(F)cc3)c2c1=O | inactive: 73%
18 | CCOc1ccc(C(=O)N2CCN(c3ccccc3)CC2)cc1 | inactive: 100%
19 | O=C(Cn1cnc2c(nc3n2CCCCC3)c1=O)Nc1ccc(F)cc1 | inactive: 91%
20 | N=c1nc(N)nc2n1NC(c1ccc(F)cc1)=CS2 | inactive: 108%
21 | CN(C(=O)c1nc(-c2cccc(F)c2)n2c1CCCCC2)c1ccccc1F | inactive: 114%
22 | Cc1cc(C)c2c(-n3cccc3)c(C(=O)NCCc3ccc(Cl)cc3)sc2n1 | inactive: 118%
23 | O=C(CN1C(=O)C(c2ccc(F)cc2)=NC12CCCCCC2)Nc1ccc(F)c(Cl)c1 | inactive: 76%

Row | SMILES | survival
24 | CC(=O)Nc1ccc(S(=O)(=O)Nc2cc(C)nc(C)n2)cc1 | inactive: 82%
25 | COc1ccccc1NC(=O)Cn1c(=O)n(Cc2ccco2)c(=O)c2oc3ccccc3c21 | inactive: 78%
26 | CCC(=O)NC1CC(=O)N(c2ccc3c(c2)OCCO3)C1 (stereo not given) | inactive: 84%
27 | Cc1ccc2c(=O)cc(C(=O)Nc3c(C)n(C)n(-c4ccccc4)c3=O)oc2c1C | inactive: 86%
28 | COC(=O)C(C)Sc1nnc2cc(C)c3cc(C)cc(C)c3n12 (stereo not given) | inactive: 105%
29 | COc1cc(-c2cc(OC)c3c(C)oc(C)c3c(=O)c2)ccc1OC(=O)c1ccccc1C | inactive: 73%
30 | COc1cc(C2c3c(-c4ccccc4O)n[nH]c3C(=O)N2Cc2ccncc2)ccc1O (stereo not given) | inactive: 97%
31 | CCCOc1ccc(NC(=O)CC2C(=O)N(c3ccccc3)C(=O)N2CCC(C)C)cc1 (stereo not given) | inactive: 76%
32 | CCc1ccc(NC(=O)C2CCN(c3cc(C)nc4c(-c5ccc(Cl)cc5)c(C)nn34)CC2)cc1 | inactive: 77%
33 | Cc1ccccc1NC(=O)c1ccccc1NC(=O)c1ccccc1Cl | inactive: 79%
34 | COc1cccc(CNC(=O)CC(c2ccc(F)cc2)N2Cc3ccccc3C2=O)c1 (stereo not given) | inactive: 82%
35 | CCc1ccc(NC(=O)CSc2ccc3nnc(CCNS(=O)(=O)c4ccc(OC)cc4)n3n2)cc1 | inactive: 92%
36 | Cc1cc(OCCCSc2nc(-c3ccc(C(C)(C)C)cc3)nc3cc(=O)[nH]n23)ccc1Cl | inactive: 70%
37 | CC(C)c1ccc(NC(=O)CCCc2nc(-c3ccc(Cl)cc3)no2)cc1 | inactive: 85%
38 | COc1cc(Cl)c(NC(=O)C2CCN(S(=O)(=O)c3c(C)noc3/C=C/c3ccccc3F)CC2)c(OC)c1 | inactive: 68%
39 | CC1CCCC(C)N1C(=O)c1ccccc1N (stereo not given) | inactive: 108%
40 | Cc1nc2ccc(S(=O)(=O)CCC(=O)Nc3ccc(F)cc3C)cc2s1 | inactive: 79%
41 | CNS(=O)(=O)c1cn(CC(=O)Nc2ccc(C)cc2C)cc1S(=O)(=O)NC | inactive: 121%
42 | Cc1ccc(C2=Nc3ccccc3NC(c3ccncc3)=N2)cc1 | inactive: 87%
43 | CCOc1ccc(-c2nc3c(C#N)c[nH]n3c2NC2CCCC2)cc1 | inactive: 78%
44 | Cc1ccc(-c2cn3c(n2)sc2cc(C(=O)NCCCc4ccccc4)ccc23)cc1 | inactive: 75%
45 | COc1ccc(NS(=O)(=O)c2ccc(NC(=O)N3CCCC3)cc2)cc1 | inactive: 128%
46 | CCOC(=O)c1cc(-c2ccc(C)cc2)nn1Cc1ccccc1 | active: 0%

Row | SMILES | survival
47 | O=C1OC(c2ccccc2)=N/C1=C\C=C\c1ccco1 | inactive: 110%
48 | CCCC1=C(C(=O)OC)C(c2ccccc2)n2c(nc3ccccc32)N1 (stereo not given) | inactive: 120%
49 | CCc1ccccc1NC(=O)C1CCCN(S(=O)(=O)c2cccc3nsnc23)C1 (stereo not given) | inactive: 76%
50 | COc1ccc(CCNC(=O)CCc2c(C)nc3c(c(C)nn3-c3ccc(C)cc3)c2C)c(OC)c1 | inactive: 124%
51 | CC(C)N(C(=O)CSc1nc2ccccc2n1CC(=O)N1C(C)CCCC1C)C(C)C (stereo not given) | inactive: 109%
52 | COc1ccc(Nc2cc(C)nc(-n3nc(C)cc3C)n2)cc1Cl | inactive: 55%
53 | Cc1ccc(-n2c3c(c(=O)[nH]c2=O)C(NC(=O)c2ccccc2F)(C(F)(F)F)C(=O)N3)cc1C (stereo not given) | inactive: 73%
54 | COc1ccc(-c2cc(C(=O)Nc3c(Cl)cccc3Cl)no2)cc1OC | inactive: 79%
55 | Cc1nc2c(C(=O)Nc3ccc(N4CCC(O)CC4)cc3)snc2c(=O)[nH]1 | inactive: 120%
56 | O=C(CN(C(=O)c1csnn1)c1cccc(F)c1)NC1CCCC1 | inactive: 104%
57 | CCc1ccc(N2CCn3c2nc2c3c(=O)n(Cc3ccc(F)cc3)c(=O)n2C)cc1 | inactive: 82%
58 | COc1ccc2c(c1)c(=O)c(S(=O)(=O)c1ccc(C)c(C)c1)cn2CC(=O)Nc1ccccc1 | inactive: 84%
59 | CCN(CCCNC(=O)c1cc2c(=O)n(CC)c3ccccc3c2s1)c1cccc(C)c1 | inactive: 71%
60 | Cc1ccccc1-c1nc(CS(=O)(=O)CC(=O)NC(C)c2ccccc2)c(C)o1 (stereo not given) | inactive: 173%
61 | COc1cc(-c2noc(C3CC(=O)N(c4ccc5c(c4)OCCO5)C3)n2)cc(OC)c1OC (stereo not given) | inactive: 75%
62 | O=C(Nc1cc(F)ccc1F)C1COc2ccccc2C1 (stereo not given) | inactive: 69%
63 | COc1ccc(Cl)cc1NC(=O)CN(c1cc(C)cc(C)c1)S(=O)(=O)c1c(C)n[nH]c1C | inactive: 18%
64 | CCc1ccc(NC(=O)c2cc3c(=O)n(Cc4cccs4)ccc3nc2C)cc1 | inactive: 121%
65 | CC(C)N(C(=O)CSc1nc2ccccc2c(=O)[nH]1)C(C)C | inactive: 104%
66 | Cc1ccc(S(=O)(=O)c2nc(-c3ccccc3)oc2N2CCN(c3ccccc3)CC2)cc1 | inactive: 86%
67 | COc1ccc(C(=O)Nc2ccc(-n3nncc3-c3ccc(OC)c(OC)c3)cc2)cc1 | inactive: 74%
68 | Cc1ccc(-c2cc(C(=O)O)n(Cc3ccccc3)n2)cc1 | inactive: 63%
69 | Cc1ccc(CNc2ccc(-c3nc(-c4ccco4)no3)cc2[N+](=O)[O-])cc1 | inactive: 84%

Row | SMILES | survival
70 | Cc1nn(CC(=O)NCCc2ccccc2Cl)c(=O)c2nn(-c3ccccc3)c(C)c12 | inactive: 128%
71 | CCNC(=O)NC1(C(=O)N2CCC(Cc3ccccc3)CC2)CCCCC1 | inactive: 114%
72 | O=S(=O)(c1ccccc1)N1CCC(c2ccncc2)CC1 | inactive: 76%
73 | CCOc1ccc(CNC(=O)Cn2nc(C)c3nn(-c4ccc(Cl)cc4)c(C)c3c2=O)cc1OC | inactive: 81%
74 | O=C1COc2cc(S(=O)(=O)CCC(=O)N3CCN(c4cccc(Cl)c4)CC3)c(Cl)cc2N1 | inactive: 60%
75 | CCC(C)NC(=O)c1sc2nc(C)c(C(=O)Nc3ccc(C)cc3C)c(-c3ccc(Cl)cc3)c2c1N (stereo not given) | inactive: 70%
76 | Cc1ccc2c(c1)c1c(c(=O)n(-c3ccccc3C)c(=O)n1CC(=O)NCCC1=CCCCC1)n2C | inactive: 74%
77 | CC(=O)c1cc(-c2ccc(F)cc2)n(CCC(=O)Nc2nc3c(C)cccc3s2)c1C | inactive: 68%
78 | CCN(CC)C(=O)C1CCN(S(C)(=O)=O)CC1 | inactive: 102%
79 | COc1ccc(CNCc2c(C(=O)O)c(C)n(Cc3ccc(Cl)cc3)c2C)c(OC)c1 | inactive: 101%
80 | Cc1ccc(Cc2nc3ccccc3nc2SCC(=O)Nc2cccc(C(F)(F)F)c2)cc1 | inactive: 60%
81 | COc1ccccc1/C=N/NC(=O)c1ccc(=O)n(C)c1 | inactive: 108%
82 | Cc1ccc(-c2cc(C(=O)Nc3c(C(=O)c4ccccc4)oc4ccccc34)no2)cc1F | inactive: 82%
83 | Cc1ccc(-n2ncc3c(NC4CCCCC4)ncnc32)cc1 | inactive: 72%
84 | O=C(CNCC1CCCO1)N1CCCC1 (stereo not given) | inactive: 87%
85 | O=C(CN1CCSc2ccccc21)N1CCN(c2cccc(Cl)c2)CC1 | inactive: 111%
86 | COC(=O)c1cnn(-c2ccc(C(=O)Nc3ccc(C(C)=O)cc3)cc2)c1N | inactive: 45%
87 | O=C(Nc1nc2ccccc2s1)NC1CCCCC1 | inactive: 112%
88 | CSc1nsc(NC(=O)Nc2ccccc2C(F)(F)F)n1 | inactive: 77%
89 | C(=Nc1ccccc1)c1ccc(N2CCOCC2)cc1 | inactive: 93%
90 | CCOC(=O)C1=CN(O)/C(=C\N=O)C=C1 | inactive: 113%
